# Data as given in the supplement of paper PMC4166925.
# ± gives the standard deviation of the averaged measurements. The full ranking holds about 33,000 sequences; the median of “E-score (dimensionless, -0.5 to 0.5)” is about -0.049, and the highest 2% start at about 0.37. Some of the results follow.
# Tested on: T1, PmTbr T-box DNA-binding domain (GST fusion)
# T1 sequence: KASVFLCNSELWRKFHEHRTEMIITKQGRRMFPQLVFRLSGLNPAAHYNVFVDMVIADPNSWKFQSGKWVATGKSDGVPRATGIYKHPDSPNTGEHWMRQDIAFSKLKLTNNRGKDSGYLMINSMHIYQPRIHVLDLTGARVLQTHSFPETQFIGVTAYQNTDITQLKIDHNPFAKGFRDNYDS
# Assay: PBM E-score of 8-mer (E-score (dimensionless, -0.5 to 0.5)); Tbr is Tbrain of the sea star Patiria miniata (Pm) or the sea urchin Strongylocentrotus purpuratus (Sp); higher = stronger binding preference; most listed sequences are background and not binding sites
# Details: the construct has about 5 more residues each side
# Method in brief: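 Each ungapped 8-mer received an enrichment E-score from the Universal PBM Analysis Suite, averaged over duplicate arrays. The proteins were Tbr T-box DNA-binding domains, covering the whole T-box plus about five flanking residues, fused to GST and expressed in BL21 E. coli at 20 °C before glutathione affinity purification. Universal Agilent oligonucleotide arrays were made double-stranded by primer extension and incubated with 200 nM protein in PBS (pH 7.5). The arrays were then scanned and quantified, and every 8-mer was scored from probe intensities.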
row,Sequence,PBM E-score of 8-mer
1,AACGGCGT,0.0826 ± 0.036
2,CGACTTAG,0.156 ± 0.015
3,AGTACGAG,-0.162 ± 0.05
4,GCTAACTA,0.212 ± 0.07
5,ACTCTTCG,0.159 ± 0.033
6,GCCCTAAA,-0.147 ± 0.072
7,GCCCCTTA,-0.211 ± 0.061
8,ACTAACAT,-0.0831 ± 0.041
9,ACCAAACG,0.0138 ± 0.029
10,GAGTTTAC,0.0822 ± 0.021
11,ACTCCAGT,-0.095 ± 0.073
12,CTACTGTC,0.0804 ± 0.037
13,GAGGTCCC,-0.143 ± 0.013
14,ATATTACC,-0.168 ± 0.038
15,AATTATCG,0.106 ± 0.11
16,TGCGCACA,0.0366 ± 0.054
17,TACTAGTA,-0.163 ± 0.035
18,AGAAGAAA,-0.128 ± 0.046
19,AATATAGC,0.11 ± 0.069
20,CGCGGGGC,-0.0991 ± 0.018
21,GCTAGCAA,0.144 ± 0.015
22,GAGTTCGA,-0.163 ± 0.097
23,AATCGGGG,-0.0455 ± 0.027
24,ACATAGGA,-0.147 ± 0.015
25,GCTCTCGA,-0.0474 ± 0.016

row,Sequence,PBM E-score of 8-mer
1,CAGCCGCC,-0.0139 ± 0.06
2,ACTAGAGC,0.124 ± 0.015
3,CCGACTCA,-0.00942 ± 0.079
4,CAAGAGTA,-0.157 ± 0.024
5,AGTTTGTA,-0.0961 ± 0.054
6,GAGACCAC,-0.121 ± 0.052
7,CGATCGGA,-0.276 ± 0.042
8,ATACCAGC,-0.08466 ± 0.00076
9,AGGTTGAT,-0.00768 ± 0.03
10,CGATTACG,-0.15 ± 0.053
11,CGTATTCA,0.165 ± 0.051
12,ATATCGAC,0.0242 ± 0.0054
13,ATTTGAAG,-0.268 ± 0.0032
14,GACCTACC,-0.153 ± 0.0062
15,TATAGAGA,-0.26 ± 0.073
16,CGCGACTC,0.223 ± 0.0025
17,CGTGACAC,0.398 ± 0.02
18,AGCAGATG,-0.0396 ± 0.044
19,CCATTTCA,-0.175 ± 0.11
20,CTCATGTA,-0.0428 ± 0.0056
21,GCAACGAC,0.0956 ± 0.091
22,AATCGAAA,-0.0634 ± 0.045
23,AAAGCGGG,-0.188 ± 0.019
24,AAGTATTA,-0.0958 ± 0.063
25,GACCAAAC,-0.171 ± 0.071

row,Sequence,PBM E-score of 8-mer
1,TAGTCCGA,-0.0316 ± 0.0096
2,GCTCAGCA,-0.0718 ± 0.12
3,ACACCCGC,0.376 ± 0.011
4,ACCCCTAC,-0.000965 ± 0.077
5,AATAGGTG,0.428 ± 0.013
6,AGCCCTAT,-0.167 ± 0.019
7,CTTACACC,0.395 ± 0.013
8,AAAAACAT,-0.23 ± 0.04
9,CTTGGACA,0.00833 ± 0.024
10,CGTAGAAA,-0.228 ± 0.089
11,GAAACTTA,-0.0121 ± 0.078
12,CAGTCGCC,-0.193 ± 0.0073
13,TGAACCCA,-0.196 ± 0.048
14,AGTTTTTA,-0.15 ± 0.12
15,AGGAAGCA,-0.234 ± 0.057
16,AGATTCAT,-0.245 ± 0.0095
17,CAAGTGGA,0.00639 ± 0.016
18,CCTGAGGA,-0.163 ± 0.029
19,AGCCGGAT,-0.161 ± 0.027
20,CACAACAA,0.278 ± 0.0061
21,AATCTGGT,-0.215 ± 0.04
22,CGTACTAC,-0.192 ± 0.026
23,AAACTTTA,-0.0279 ± 0.07
24,ATAGGCTG,0.0498 ± 0.019
25,AGTCAGGG,-0.258 ± 0.13

row,Sequence,PBM E-score of 8-mer
1,AGCCTTGC,0.0184 ± 0.064
2,ACTATGTC,0.0273 ± 0.0063
3,GCTTCGAC,-0.0774 ± 0.06
4,ACGTAGGG,-0.0279 ± 0.0026
5,GAGGATCA,-0.108 ± 0.011
6,CGAGCAGC,-0.1396 ± 0.0012
7,AGATGGAA,-0.131 ± 0.051
8,AATTTAGT,0.00102 ± 0.03
9,TGCGGCCA,-0.197 ± 0.035
10,GTGGTTGA,-0.202 ± 0.019
11,CCAAATGG,-0.072 ± 0.021
12,AAGGCGTA,0.107 ± 0.0048
13,CGGTTCGC,0.279 ± 0.048
14,CCTAGGTA,0.0108 ± 0.02
15,AGGCTCAG,-0.226 ± 0.055
16,GGCGGAAA,-0.0947 ± 0.048
17,ATACCCCC,-0.292 ± 0.03
18,CGGGAAAC,0.13 ± 0.031
19,CGGTCGTC,-0.0636 ± 0.08
20,ACCATGGT,0.17 ± 0.025
21,CCCCTTTA,-0.201 ± 0.056
22,ACTCTGAG,-0.134 ± 0.095
23,GAGAACCA,-0.0255 ± 0.022
24,CCCCCACC,-0.148 ± 0.06
25,ATACTCTC,-0.141 ± 0.013

row,Sequence,PBM E-score of 8-mer
1,CACGGGAA,0.0515 ± 0.031
2,CCCAGACG,-0.162 ± 0.1
3,ATCTCTTG,-0.0373 ± 0.013
4,CTCCCATA,-0.14 ± 0.072
5,GCTACGCC,0.032 ± 0.048
6,GAGGGAAA,-0.196 ± 0.067
7,AGGGCACT,-0.1804 ± 0.00059
8,CCGTAACC,0.0443 ± 0.0046
9,ATTGCAGA,-0.0687 ± 0.049
10,ACAGCCAC,-0.0183 ± 0.066
11,CACCCTGG,0.253 ± 0.08
12,CCTCATGC,-0.102 ± 0.091
13,ATCGTCCG,-0.196 ± 0.014
14,AAATTCAT,-0.157 ± 0.063
15,ACTTCATG,-0.0177 ± 0.065
16,CACCCGTA,0.202 ± 0.011
17,CCGCGAAC,0.271 ± 0.036
18,AACAGTTA,0.165 ± 0.043
19,AGAGGAGC,-0.124 ± 0.0083
20,ACGCGCCG,0.232 ± 0.0031
21,AATCCATG,-0.185 ± 0.1
22,GGACCACA,-0.166 ± 0.12
23,CGTTTTAG,-0.000705 ± 0.021
24,ACGAAGTA,-0.0809 ± 0.039
25,GCTCAGGA,-0.2193 ± 0.0013

row,Sequence,PBM E-score of 8-mer
1,AAAGTGTT,0.429 ± 0.014
2,GGACTGTA,-0.252 ± 0.022
3,CGGCAAAC,-0.0247 ± 0.012
4,ACATCGCT,0.0475 ± 0.034
5,ACTCGGGG,-0.196 ± 0.035
6,AGGTTCCA,-0.0212 ± 0.0022
7,AGGCAGAT,-0.0961 ± 0.0082
8,AATGCGGT,-0.168 ± 0.015
9,CCTCCAGA,-0.00215 ± 0.052
10,ATCATTGG,0.0259 ± 0.051
11,CATCCCTC,-0.135 ± 0.0047
12,GGAGTCCA,-0.207 ± 0.0052
13,TAATTAAA,-0.18 ± 0.074
14,TAAATGCA,-0.178 ± 0.13
15,TAATCGCA,0.148 ± 0.03
16,AGTCAGAG,-0.339 ± 0.058
17,AAGAGAAG,0.0141 ± 0.00086
18,AGCGTTGC,0.0297 ± 0.028
19,CAACGGCG,0.11 ± 0.0042
20,AGTGTTGC,0.3558 ± 0.0028
21,ACTCCGCC,-0.102 ± 0.013
22,ACTCACCC,0.139 ± 0.0059
23,TAGAACGA,-0.136 ± 0.028
24,ACGACAGG,0.0499 ± 0.026
25,AATATGTA,0.0104 ± 0.0099

row,Sequence,PBM E-score of 8-mer
1,AGGTTCGC,0.248 ± 0.012
2,TGAACGAA,-0.304 ± 0.0082
3,CAAGTGAA,0.0677 ± 0.11
4,ATACACCC,-0.0169 ± 0.0085
5,AAGCTTAC,-0.086 ± 0.0032
6,TCGGTGAA,-0.0692 ± 0.1
7,TAACATGA,0.0401 ± 0.069
8,CGCCCTGC,0.069 ± 0.091
9,GAGGGAGA,-0.0203 ± 0.021
10,AAAACCTC,-0.118 ± 0.063
11,CAGTGCTC,-0.0161 ± 0.07
12,ATTAAGCA,-0.171 ± 0.024
13,ACTGTGCA,-0.0802 ± 0.035
14,CGAGGTTA,0.0486 ± 0.017
15,CCTTTTTA,-0.04 ± 0.043
16,TGAGGCCA,-0.255 ± 0.015
17,CGTAAATC,0.103 ± 0.025
18,AGCCTACG,-0.0434 ± 0.012
19,CATTGGAC,-0.107 ± 0.047
20,AAGCGTAC,-0.0966 ± 0.052
21,AATCTATA,-0.213 ± 0.0055
22,ATAGGATG,-0.00958 ± 0.037
